Results: PubChem BioAssay AID1508623 (National Center for Advancing Translational Sciences (NCATS), 2021)
In all, about 48,000 compounds went through this assay and about 450 (0.94%) were called active. About 19% were inconclusive and are not listed. Calls follow the shape of the dose curve; as a rule, active = well fitted inhibition curve with a large enough effect; inconclusive = small, poorly fitted or top-dose-only effect; inactive = no such curve, though single readings can be large or run the other way. This is one part of the list.

Test: Primary qHTS for Identification of Small Molecule Inhibitors of Huntingtin Promoter Activity; also: nearly all actives have a fitted effect of over 50% in size
Settings: HEK293 HTT promoter firefly luciferase reporter (activity 0% = vehicle and -100% = no light), 24 h; series mostly up to 57.5 µM; activity change, negative = inhibition: at the top concentration
Summary of the method: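 HEK293 Fluc reporter, 2,500 cells/well, 24 h pre-culture; cpds up to 57.5 uM final, 24 h 37 degrees C; Dual-Glo, 10 min RT; normalized vehicle = 0%, zero RLU = -100%.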

Activity change, negative = inhibition, inactive:
CN(C)CCNC(=O)CCCn1c(=O)c2cccn2c2ccccc21 -9.05%, CC1=C(C(=O)Nc2cccnc2)C(c2ccccc2)n2nc(SCc3ccccc3)nc2N1 (centres undefined) -2.64%, O=C(Cn1nc(-c2ccccc2)c2cnc3ccccc3c21)Nc1ccccc1 -4.88%, Cc1ccc(Cn2nnc3sc4c(c3c2=O)CCC(C)C4)cc1 (centres undefined) -11.6%, CCC(=O)N1CCc2cc(CNS(=O)(=O)c3c(C)cc(C)cc3C)ccc21 -15.9%, Cc1ccc2nc(-c3ccc(Cl)c(NC(=O)c4ccc5c(c4)OCCO5)c3)oc2c1 -18.8%, Cc1nnc(NCc2ccc(Cl)cc2)c2c1nnn2Cc1ccc(F)cc1 -5.62%, COC(=O)c1ccccc1NC(=O)c1cc(-c2ccc(Cl)cc2)on1 -0.489%, Cc1nc2ccccc2n1CCc1nc2c3ccccc3nc(SCC(=O)Nc3cccc(C(F)(F)F)c3)n2n1 -17.5%, CCc1ccc2ncc(S(=O)(=O)c3ccc(Cl)cc3)c(N3CCN(CC)CC3)c2c1 -19.2%, Cc1cc(C)nc(NS(=O)(=O)c2ccc(NC(=O)c3ccccc3O)cc2)n1 -9.52%, COc1ccc2c(Sc3ccccc3)c(C(=O)NCC(C)c3ccccc3)[nH]c2c1 (centres undefined) 15.6%, Cc1cc(C)cc(-n2c(SCC(=O)N3CCCC3)nc3c([nH]c4ccccc43)c2=O)c1 -9.73%, O=C(CCC1N=C2c3ccccc3N=C(SCc3ccccc3Cl)N2C1=O)NCCc1ccccc1 (centres undefined) -1.89%, Cc1ccccc1NC(=O)CSc1nc(-c2ccc(F)cc2)nc2c1Cc1ccccc1O2 1.03%, COc1ccc(NC(=O)C2CCN(S(=O)(=O)c3ccc4[nH]c(=O)ccc4c3)CC2)cc1Cl -12%, COc1cc(OC)c(NC(=O)C(c2ccccc2)N2Cc3ccccc3C2=O)cc1Cl (centres undefined) -21.6%, CCc1nnc(SCc2cccc(F)c2)c2cc3sc(C)cc3n12 -22.8%, CCOc1ccc(N2CC(c3nc4ccccc4n3CCCOc3ccccc3OC)CC2=O)cc1 (centres undefined) -28.4%, CCS(=O)(=O)N1CC(=O)N(c2ccc(Cl)cc2C)C(C)(C(=O)NC2CCCCCC2)C1 (centres undefined) -1.23%, CC(C)CN(CCCNC(=O)c1cc(-c2ccc(Br)s2)nc2ccccc12)CC(C)C -22.8%, COc1ccc(CCNC(=O)C2(c3cccs3)CCOCC2)cc1 -12.5%, COCCCNC(=O)c1ccc(Cn2c(=O)c3ccccc3n(CC(=O)Nc3c(C)cccc3C)c2=O)cc1 -8.68%, CCCCCCNc1nc2c(c(=O)n(C)c(=O)n2C)n1Cc1cccc(C)c1 -21.8%, CCOc1cc(C(=O)Nc2ccc3nc(Nc4cccc(Cl)c4)cc(C)c3c2)cc(OCC)c1OCC -11.1%, Cc1nnc(SCc2cc(=O)n3cccc(C)c3n2)s1 14.5%, Cc1nn2c(C)c(C(=O)N3CCN(c4ccccc4F)CC3)cnc2c1-c1ccc(F)cc1 -6.53%, Cc1cccc(CCNC(=O)C2CCC(CNS(=O)(=O)c3ccccc3)CC2)c1 (centres undefined) 0.957%, CCCC(CCC)C(=O)Nc1cccc(-c2nc3cccnc3s2)c1C -10.1%, CNS(=O)(=O)Cc1ccc2[nH]cc(CCN(C)C)c2c1, O=C(Nc1ccc(F)c(Cl)c1)C1CCN(C(=O)c2ccc(F)cc2)CC1 -19.2%, N#Cc1ccccc1Cn1c(=O)n(CCCC(=O)NCc2ccccc2Cl)c(=O)c2ccccc21 0.612%, Cc1ccc(-c2cc3ncc(C(=O)c4cc(Cl)c(C)cc4O)cn3n2)cc1 1.21%, CCN(C(=O)CSc1ncc2c(n1)-c1cc(Cl)ccc1N(Cc1ccccc1)S2(=O)=O)c1cccc(C)c1 -15.2%, CCOc1ccc(Br)cc1C1C(C(=O)OC)=C(C)NC2=C1C(=O)c1ccccc12 (centres undefined) -19.7%, CCc1c(C)sc2c1CCN(C(=O)Nc1ccccc1C(=O)OC)C2c1ccc(OC)cc1 (centres undefined) -9.01%, COc1ccc(OC)c(C2Nc3c(C)cc(C)cc3-c3cc(C)nn32)c1 (centres undefined) -24.8% [at 11.5 µM], Cc1ccc(NS(=O)(=O)c2ccc3c(c2)CC(=O)N3)cc1Cl -17.9%, O=C(NCc1ccc(Cl)cc1)C1=Cc2cc(Br)ccc2OC1 -16.3%, CCC(=O)N1CCc2cc(Br)cc(S(=O)(=O)N3CCCC(C(=O)Nc4cc(C)ccc4OC)C3)c21 (centres undefined) -3.94%, CCn1c(=O)cc(OCC(=O)N(C)c2ccc(OC)cc2)c2ccccc21 11.5%, CCC(CC)(CC(=O)Nc1cccc(/C=C/c2nc(C3CCC3)cs2)c1)C(=O)O 23.3%, Cc1ccc(Cl)cc1N1CCN(C(=O)c2cc3ccc4cccnc4c3[nH]2)CC1 11.4%, NC(=O)c1ncn([C@@H]2O[C@H](CO)[C@@H](O)[C@H]2O)n1 -13.6%, COc1cc(OC)c(NC(=O)c2c(N3CCCC3=O)c3cc(C)ccc3n2C)cc1Cl -2.57%, COc1ccc(Cl)cc1C(=O)Nc1ccc2nc(Nc3cccc(Cl)c3)cc(C)c2c1 -18.7%, CCn1c(=O)c2cc(C(=O)NCCCN3CCN(c4ccc(F)cc4)CC3)sc2c2ccccc21 0.0507%, CCOc1ccccc1NC(=O)Cn1ncc2c([nH]c3ccccc32)c1=O -8.65%, Cc1ccccc1OCC(=O)Nc1nnc(S(=O)(=O)N2CCCC2)s1 -11%, CC(C)Oc1ccc(CNC(=O)c2ccc3c(c2)nc2n3CCCCC2)cc1 43.6%, CCOC(=O)[C@H](CCc1ccccc1)N[C@@H](C)C(=O)N1[C@H](C(=O)O)C[C@@H]2CCC[C@@H]21 -3.12%, COc1ccc(C2=C(C)C(=O)N(Cc3ccc(C(=O)NC(C)c4ccccc4)cc3)S2(=O)=O)cc1 (centres undefined) -7.09%, Cc1cc(=O)n2nc(N3CCC(C(=O)Nc4c(C)cccc4C)CC3)sc2n1 -15.2%, CC1CCN(S(=O)(=O)c2cc3c4c(c2)C(C)C(=O)N4CCC3)CC1 (centres undefined) -14.5%, O=C(NC1CCCCCC1)C1c2ccccc2C(=O)N1Cc1ccc(F)cc1 (centres undefined) -4.97%, COc1ccc(CNC(=O)CN2C(=O)CSc3ccc(S(=O)(=O)N(C)C)cc32)cc1 -1.9%, CCc1cccc(NC(=O)Cn2c(=O)n(CCC(=O)NCc3ccccc3Cl)c(=O)c3sccc32)c1 -5.9%, Oc1c(C(c2ccccc2)N2CCOCC2)sc2nc(-c3ccco3)nn12 (centres undefined) -0.968%, Nc1c(C(=O)Nc2cccc(F)c2)nnn1-c1cccc(C(F)(F)F)c1 32.2%, Cc1cc(C)cc(NC(=O)c2sc3nc4n(c(=O)c3c2C)N=C(c2ccccc2)CS4)c1 13.8%, O=C(Cn1ncc2c3ccccc3n(Cc3cccc(Cl)c3)c2c1=O)NCCCN1CCCCC1 1.35%, CCOCCCNc1nc2c(S(=O)(=O)c3ccc(CC)cc3)nnn2c2ccc(Cl)cc12 5.89%, Cc1ccc(CNC(=O)Cn2c(=O)cc(C)c3c(C)nn(-c4cccc(F)c4)c32)cc1 3.23%, Cc1ccc(C)c(N2CCN(S(=O)(=O)c3ccc(-c4cnc(C5CC5)o4)cc3)CC2)c1 -18.1%, Cc1ccc(NC(=O)CSc2nc(-c3cccs3)nc3cc(=O)[nH]n23)cc1C 6.6%, CCOc1ccccc1CN1CCc2nc(N3CCN(C)CC3)ncc2C1 -12.8%, O=C(NCCc1ccccc1)C1CCN(Cc2cc3ccccc3n2Cc2ccccc2)CC1 -8.91%, COc1ccc(-c2cn3cccnc3n2)cc1NC(=O)Nc1cc(C)ccc1C 24.2%, CCOc1ccc(-c2cc(C(=O)NC(C)c3ccccc3)c3ccccc3n2)cc1 (centres undefined) 4.4%, COc1ccc(COC(=O)C2=C(C)NC(=O)CC2c2cccc(Cl)c2Cl)cc1 (centres undefined) -9.38%, CN1C(C(=O)c2ccccc2)=C(NC(=O)c2ccc(F)cc2)c2ccccc2S1(=O)=O -15.7%, O=C(Nc1ccc(C(=O)N2CCN(c3ccccc3F)CC2)cc1)c1nsc2ccccc12 -21.2%, CN(C)CCN(Cc1ccco1)C(=O)c1cc2c(s1)-c1ccccc1OC2 -27.6%, CCOC(=O)N1CCc2c(sc3c2c(=O)n(-c2ccc(F)cc2)c(=O)n3CC(=O)c2ccc(Cl)cc2)C1 -9.38%, Cc1cccc(C(=O)NC2(C(F)(F)F)N=C(c3ccccc3)N(C3CCCCC3)C2=O)c1 (centres undefined) 2.39%, COc1ccc([C@@H]2Sc3ccccc3NC(=O)[C@@H]2O)cc1 -22%, CC(=O)C1=C(c2ccc(F)cc2)N(C(C)=O)n2c(nnc2C2CCCCC2)S1 -11.9%, COC(=O)[C@H]1[C@H]2C[C@@H]3c4[nH]c5cc(OC)ccc5c4CCN3C[C@H]2C[C@@H](OC(=O)COc2ccc(OC)cc2)[C@@H]1OC -6.77%, CCOc1ccc(C(=O)NCC(c2ccc(Cl)cc2)N2CCCCC2)cc1 (centres undefined) 8.39%, CCCCNc1ccc(-c2nc(-c3ccccn3)no2)cc1[N+](=O)[O-] 27%, COc1ccc(-c2nnn3c2nc(NCc2ccc(C)cc2)c2ccccc23)cc1 -8.22%, Cc1cc(C)c(NC(=O)C(C)n2c(=O)cc(-c3ccccc3)c3c(C)nn(C)c32)c(C)c1 (centres undefined) -0.304%, CCCNC(=O)CSc1c(CCC)cnc2c1c(=O)n(C)c(=O)n2C -5.71%, CC(C)COCC(CN(Cc1ccccc1)c1ccccc1)N1CCCC1 (centres undefined) -33.5%, O=C(CN1C(=O)C2(SCC(=O)N2c2cccc(F)c2)c2ccccc21)NCCc1ccccc1 (centres undefined) -9.9%, O=C(CCOCCOCCOCCOCCC(=O)Nc1c(I)cc(I)c(C(=O)O)c1I)Nc1c(I)cc(I)c(C(=O)O)c1I 2.83%, O=C(NCCc1csc(-c2cccnc2)n1)c1ccccc1 12.3%, CCOC(=O)c1cnc(N2CCN(c3cccc(C)c3C)CC2)c2ccccc12 -3.89%, Cc1ccccc1C(=O)OCc1cc(=O)n2nc(C3CCCCC3)sc2n1 -9.24%, CCOC(=O)c1cc(-c2ccc(OC)c(S(=O)(=O)NCc3ccccc3Cl)c2)on1 -9.27%, CC1CCCCN1CCCNC(=O)CN1C(=O)CSc2ccc(S(=O)(=O)N3CCOCC3)cc21 (centres undefined) -12.3%, COc1ccc(OC)c(NC(=O)Cn2ccn(-c3ccc(OC)c(OC)c3)c(=O)c2=O)c1 -18.4%, CCc1ccc(NC(=O)Nc2ccccc2OCc2cc(=O)n3ccccc3n2)cc1 52.5%, Cc1ccc(Nc2c(-c3ccc(C)s3)nc3ccccn23)cc1 38.1%
